Assay results published in PubChem BioAssay AID463173 (ICCB-Longwood Screening Facility, Harvard Medical School, 2010).
The campaign covered roughly 52,000 compounds. About 1,700 (3.3%) were called active. Rule as the data show it: active = survival mostly below about 52% (no sharp cut-off); inactive = mostly above about 56%. The list shows a part of the results.

tested on: Wild type; assay: S. aureus survival, RN4220 and DeltatarO strains – OD600, teichoic acid synthesis inhibitors, primary screen (AID 463173); conditions: S. aureus RN4220 wild type/DeltatarO growth, OD600, 18 h, stronger effect = lower value, screened at 18.75 µg/mL (by protocol)

| Structure (SMILES) | survival |
| --- | --- |
| CCC(=O)N1CCc2cc(S(=O)(=O)CCC(=O)N3CCN(c4ccccc4Cl)CC3)ccc21 | inactive: 78% |
| CN(c1ncnc2c1c(-c1ccccc1)cn2-c1ccc(F)cc1)C1CCCCC1 | inactive: 124% |
| O=C(NCCOCCO)C(=O)Nc1c2c(nn1-c1ccc(F)cc1)CSC2 | inactive: 71% |
| Cc1ccc(N(Cc2cccs2)C(=O)c2ccccc2)cc1 | inactive: 91% |
| O=C(NCCn1cc(SCc2cccc(F)c2)c2ccccc21)c1cccc(C(F)(F)F)c1 | active: 8% |
| CCOC(=O)c1cc(-c2ccccc2)n(CCC(=O)Nc2ccc(C(F)(F)F)cc2)c1C | inactive: 129% |
| Clc1ccccc1Cn1cccc1C1=NC(Cc2ccccc2)CO1 (centres undefined) | inactive: 25% |
| COc1ccc(-c2nc3ccc(NS(C)(=O)=O)cc3o2)cc1 | inactive: 89% |
| Cn1c(SCC(N)=O)nc2c([nH]c3ccccc32)c1=O | inactive: 63% |
| O=C(O)c1ccc(Nc2nc(-c3ccccc3)c3cc(Br)ccc3n2)cc1 | inactive: 57% |
| CCCC1OC2CC3C4CCC5=CC(=O)C=CC5(C)C4C(O)CC3(C)C2(C(=O)O)O1 (centres undefined) | inactive: 107% |
| CN1C(=O)C(CC(=O)NCC2CCCCC2)SC1=Nc1ccccc1 (centres undefined) | inactive: 99% |
| N#CC1=C(N)C(C#N)(C#N)C(c2ccco2)C2CN(Cc3ccccc3)CC=C12 (centres undefined) | inactive: 100% |
| C=CCn1c(C(=O)OCC)cc2oc(C)cc21 | inactive: 111% |
| NC(CCc1nc2ccccc2[nH]1)C(=O)O (centres undefined) | inactive: 105% |
| CC1=CCC(C(=O)Nc2nc3ccccc3s2)C(C(=O)O)C1 (centres undefined) | inactive: 102% |
| COc1ccc(-n2c(SCC(=O)Nc3nnc(C)s3)nc3c([nH]c4ccccc43)c2=O)cc1 | inactive: 88% |
| CCOC(=O)c1scc(-c2ccc(C)cc2)c1S(=O)(=O)Nc1cccc(CC)c1 | inactive: 73% |
| Cc1cccc(C(=O)Nc2cccnc2)c1 | inactive: 110% |
| Cc1onc(-c2ccc(Br)cc2)c1C(=O)Nc1ccc(Br)cc1F | inactive: 117% |

| Structure (SMILES) | survival |
| --- | --- |
| O=C(NCCc1ccccc1)c1c(O)c2cccc3c2n(c1=O)CC3 | inactive: 108% |
| CC(C)N(C(=O)c1cc2c(Cl)nc3ccccc3c2s1)C1CCCCC1 | active: -1% |
| COc1cccc2sc(N3CCN(C(=O)CS(=O)(=O)c4ccc(Cl)cc4)CC3)nc12 | active: -6% |
| CCOC(=O)c1ccccc1Nc1cc(C)nc2nc(-c3ccco3)nn12 | inactive: 133% |
| Cc1cccc(C(=O)Nc2cc3c(cc2N2CCOCC2)n(C)c(=O)n3C)c1 | inactive: 84% |
| Cc1cc(C)c(S(=O)(=O)N2CCN(Cc3nc4ccc(C)cc4o3)CC2)c(C)c1 | inactive: 73% |
| CC1=C(C(=O)Nc2cc(C)ccc2C)C2(CCCCCC2)OC1=O | inactive: 70% |
| O=C(NCCCN1CCN(c2ccccc2)CC1)c1nnc(Cc2ccc(F)cc2)o1 | inactive: 98% |
| CCN1C(C(=O)c2ccccc2)=C(OC(=O)COc2ccccc2)c2ccccc2S1(=O)=O | inactive: 63% |
| Nc1c(-c2nc(-c3ccccc3)cs2)c2ccccn2c1C(=O)c1ccc2c(c1)OCO2 | inactive: 84% |
| O=C(O)CC(NS(=O)(=O)c1ccc(Br)s1)c1ccccc1 (centres undefined) | inactive: 85% |
| CCOc1ccc(NC(=O)Cn2cc(C(=O)c3ccc(C)cc3)c(=O)c3cc4c(cc32)OCCO4)cc1 | inactive: 128% |
| COc1ccc(-n2c(C)nc3cc(C(=O)NC4CCCC4)ccc32)cc1 | inactive: 73% |
| Cc1ccc(N2CCN(S(=O)(=O)c3ccc4oc(=O)c5ncn(C)c5c4c3)CC2)c(C)c1 | inactive: 121% |
| CC(C)OCCCN(C)C1CCN(S(=O)(=O)c2csc(C(N)=O)c2)CC1 | inactive: 81% |
| CCOCCCNC(=O)Nc1cc(C(=O)NCc2ccc(C(C)C)cc2)ccc1N1CCCC1 | inactive: 68% |
| Cc1ccc2nc(NC(=O)C(C)C)sc2c1 | inactive: 127% |
| CC(=O)c1ccc(C(=O)N(Cc2cccnc2)c2nc3c(Cl)cccc3s2)cc1 | inactive: 119% |
| Cc1cccc(-c2nnc(SCC(=O)N3CCCc4ccccc43)o2)c1 | active: 5% |
| CSc1cccc(NC(=O)Cn2nc(C)c3sc4ccccc4c3c2=O)c1 | inactive: 81% |

| Structure (SMILES) | survival |
| --- | --- |
| COc1cc2c(cc1OC)C(COc1ccc(F)cc1)N(C(=O)c1ccccc1F)CC2 (centres undefined) | inactive: 78% |
| Cc1cc(C)cc(NC(=O)C2CCN(c3cc(C)nc4c(-c5ccc(Cl)cc5)c(C)nn34)CC2)c1 | inactive: 87% |
| CCC1SC(C)C/C(=N\O)C1C (centres undefined) | inactive: 95% |
| Cc1ccc(S(=O)(=O)c2nnn3c2nc(NCc2cccs2)c2sccc23)cc1C | inactive: 60% |
| COC(=O)C(C)NC(=O)N1CCN(c2nnc(C)c3c(C)n(-c4ccc(Cl)cc4)nc23)CC1 (centres undefined) | inactive: 73% |
| Cn1nnnc1SCCNCc1ccccc1OCc1ccc(Cl)cc1Cl | inactive: 56% |
| Cc1cccc(CS(=O)(=O)c2ncc(Cl)c(C(=O)Nc3nc4ccc(F)cc4s3)n2)c1 | active: 7% |
| COc1ccc(-c2noc(Cn3c(=O)c4ccccc4n(CC(=O)Nc4cccc(C(F)(F)F)c4)c3=O)n2)cc1 | inactive: 73% |
| O=C(Cc1ccc(F)cc1)NCCc1csc(-c2cccc(F)c2)n1 | inactive: 69% |
| CC(C)NC(=O)N1CCC(N2CCN(Cc3ccc(F)cc3)C(=O)C2=O)CC1 | inactive: 70% |
| CCOc1ccc(N(CC)S(=O)(=O)N2CCCC(C(=O)NCc3ccc(Cl)cc3)C2)cc1 (centres undefined) | inactive: 78% |
| O=S(=O)(Nc1cccc(-c2ccc(N3CCCCCC3)nn2)c1)c1ccccc1 | active: 1% |
| CCOC(=O)c1[nH]c(Cc2[nH]c(C(=O)OCC)c(C)c2CC(=O)OC)c(CCC(=O)OC)c1C | inactive: 113% |
| COC(=O)c1ccc(C(=O)O)s1 | inactive: 98% |
| Cn1cnnc1SC1CCCCC1NS(=O)(=O)c1ccc(Cl)cc1 (centres undefined) | inactive: 103% |
| O=C(c1cccc(Cl)c1)N(Cc1ccco1)Cc1ccccc1Cl | inactive: 49% |
| CCc1nc2onc(C)c2c(=O)n1CC(=O)O | inactive: 88% |
| Cc1ccccc1-c1nc(CS(=O)(=O)CC(=O)Nc2cccc(C(F)(F)F)c2)c(C)o1 | inactive: 116% |
| COc1ccc2c(c1)c1c(c(=O)n(Cc3ccccc3)c(=O)n1CC(=O)Nc1c(C)cccc1C)n2C | inactive: 81% |
